Earlier results on seven molecules are cited in PMC5742115, “Pharmacophore Modeling and in Silico/in Vitro Screening for Human Cytochrome P450 11B1 and Cytochrome P450 11B2 Inhibitors” (Frontiers in Chemistry, 2017).

One data set concerns CYP11B1. Particulars: reported activity, supplementary Table 1; ref Voets et al., 2006; cited from earlier work.
A further data set relates to CYP11B2. The settings on record: reported activity, supplementary Table 1; ref Voets et al., 2006; cited from earlier work.

Turning to `C1=C(c2cccnc2)Cc2ccccc21` [CHEMBL205782], the IC50 in the data set with CYP11B1 is 2390 nM; with CYP11B2, 13 nM.
With `CC1Cc2ccccc2C=C1c1cccnc1` (centres unmarked) [CHEMBL206550], the IC50 in the data set on CYP11B1 is 503 nM; with CYP11B2, 5 nM.
Take `CCC1=C(c2cccnc2)CCc2ccccc21` [CHEMBL205503]: the figures for the IC50 in the data set with CYP11B1 and with CYP11B2 were 2120 nM and 30 nM, respectively.
Consider `CC1=C(c2cccnc2)CCc2ccccc21` [CHEMBL206283], for which the concentration for half-maximal inhibition (IC50) in the data set with CYP11B1 was 1270 nM; in the data set on CYP11B2, 7 nM.
With `COc1ccc2c(c1)C=C(c1cccnc1)C2` [CHEMBL206300], the half-inhibitory concentration (IC50) was 5680 nM in the data set with CYP11B1 and 11 nM with CYP11B2.
`CC1CC(c2cccnc2)=Cc2ccccc21` (centres unmarked) [CHEMBL206070]: the IC50 in the data set with CYP11B1 was 1290 nM; with CYP11B2, 13 nM.
As to `C1=C(c2cccnc2)CCc2ccccc21` [CHEMBL205881], the half-maximal inhibitory concentration (IC50) is 1730 nM in the data set with CYP11B1 and 7 nM in the data set on CYP11B2.

What is called IC50 is the concentration at which inhibition is half-maximal.
